In all, about 310,000 compounds went through this assay and about 2,200 (0.71%) showed an effect of 50% or more. Effects have a minus sign here. The list shows a part of the results.
Target: human ether-à-go-go-related gene (hERG) potassium channel (human, UniProt Q12809)
Assay: primary screen, population patch clamp on CHO cells stably expressing hERG

Sequence of human ether-à-go-go-related gene (hERG) potassium channel (Q12809 whole entry, looked up): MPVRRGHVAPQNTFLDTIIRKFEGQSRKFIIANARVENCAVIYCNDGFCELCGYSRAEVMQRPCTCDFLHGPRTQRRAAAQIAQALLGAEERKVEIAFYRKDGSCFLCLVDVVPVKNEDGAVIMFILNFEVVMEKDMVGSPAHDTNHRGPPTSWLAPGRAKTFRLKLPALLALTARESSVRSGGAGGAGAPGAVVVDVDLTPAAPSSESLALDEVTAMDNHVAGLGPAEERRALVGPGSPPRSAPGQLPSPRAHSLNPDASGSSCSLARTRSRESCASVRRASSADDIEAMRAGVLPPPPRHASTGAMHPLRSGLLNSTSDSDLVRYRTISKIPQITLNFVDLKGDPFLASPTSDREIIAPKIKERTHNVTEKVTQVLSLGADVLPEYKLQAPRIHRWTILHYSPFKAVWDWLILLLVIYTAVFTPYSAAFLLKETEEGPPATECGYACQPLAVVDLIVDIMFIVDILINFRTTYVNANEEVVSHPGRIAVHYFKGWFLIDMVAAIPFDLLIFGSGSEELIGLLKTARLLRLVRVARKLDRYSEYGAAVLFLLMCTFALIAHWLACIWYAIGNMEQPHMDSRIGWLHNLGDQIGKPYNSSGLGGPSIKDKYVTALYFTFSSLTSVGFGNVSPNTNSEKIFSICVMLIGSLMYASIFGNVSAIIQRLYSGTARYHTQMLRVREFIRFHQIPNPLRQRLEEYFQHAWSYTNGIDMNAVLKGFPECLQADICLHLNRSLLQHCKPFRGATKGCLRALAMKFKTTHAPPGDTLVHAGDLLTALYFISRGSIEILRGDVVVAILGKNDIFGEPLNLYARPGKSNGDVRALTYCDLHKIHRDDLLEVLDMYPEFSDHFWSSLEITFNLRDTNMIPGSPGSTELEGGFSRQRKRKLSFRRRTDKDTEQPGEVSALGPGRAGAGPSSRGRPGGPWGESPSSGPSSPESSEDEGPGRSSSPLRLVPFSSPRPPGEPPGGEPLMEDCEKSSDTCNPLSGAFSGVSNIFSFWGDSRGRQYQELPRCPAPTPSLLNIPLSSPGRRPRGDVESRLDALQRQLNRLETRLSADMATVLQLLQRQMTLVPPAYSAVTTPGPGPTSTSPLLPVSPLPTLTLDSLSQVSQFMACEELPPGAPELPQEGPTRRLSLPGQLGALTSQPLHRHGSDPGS

Structure (SMILES) | hERG current change (%, negative = inhibition) at 1uM
Cc1cccc(C)c1NC(=O)CNC(=O)CCC(=O)c1cccs1 | -2.47%
Cc1ccccc1-c1nc(CS(=O)CC(=O)NC2CCCCC2)c(C)o1 (centres unmarked) | 11.5%
COc1ccc(NC(=O)c2c(Cl)cnn2C)c(C)c1 | 7.37%
Cc1cc(S(=O)(=O)Nc2cccnc2)c(C)s1 | 2.46%
CC(C)(CO)Nc1nc(Nc2ccccc2)nc(Nc2ccccc2)n1 | 1.4%
COc1cc2[nH]c(C(=O)Nc3ccc(F)cc3)cc2c(OC)c1OC | 10.7%
Cc1ccccc1NC(=O)Cn1nnc(C(=O)NCc2ccco2)c1N | 4.07%
Cc1cnc(C(=O)NC2CC(C)(C)Cc3c2cnn3-c2ccccc2)cn1 (centres unmarked) | -3.1%
Cn1nc(C(=O)NCc2ccc(Cl)cc2)c2c1-c1ccccc1S(=O)(=O)C2 | 13.5%
CCC(C(=O)NCc1ccco1)N(C(=O)CNS(=O)(=O)c1ccc(C)cc1)c1ccccc1F (centres unmarked) | 8.6%
Cc1nc2cc(C(=O)OCC(=O)N(CC(C)C)C3CCS(=O)(=O)C3)ccc2n1-c1ccccc1 (centres unmarked) | 3.89%
Cc1ccc(S(=O)(=O)c2nnn3c2nc(N2CCCCC2)c2ccccc23)cc1 | 3.01%
CCCCSc1nc2c(c(=O)n1CC)SC(C)C2 (centres unmarked) | 14.4%
O=C(NNS(=O)(=O)c1ccccc1)C1CC(c2cccnc2)=NO1 (centres unmarked) | 13.2%
CCCCc1c(C)nc2nc(SCc3ccc(Cl)cc3)[nH]n2c1=O | 5.15%
CCc1cccc(CC)c1NC(=O)COn1nnc2ccc(C(F)(F)F)cc21 | 20.3%
CC1CCCCC1NC(=O)CCCCCn1c(=S)[nH]c2ccccc2c1=O (centres unmarked) | 10.5%
Cc1cccc(Nc2nc(N)nc(CN3CCC(C)CC3)n2)c1C | -2.5%
CCc1ccc(NC(=O)Cn2ccn(-c3cccc(Cl)c3)c(=O)c2=O)cc1 | -2.31%

Structure (SMILES) | hERG current change (%, negative = inhibition) at 1uM
CCc1cc(CNC(=O)CC2C(=O)NCCN2Cc2ccccc2C(F)(F)F)on1 (centres unmarked) | 11.5%
C=CCn1c(O)c(C(C)=Nc2ccc(C(=O)O)cc2)c(=O)[nH]c1=O | 10.5%
COc1ccccc1NC(=O)c1ccc(NC(=O)CSc2nc(N)cc(=O)[nH]2)cc1 | 13.5%
CC(C)CC(COCc1ccc([N+](=O)[O-])cc1)N1CCN(C(=O)c2ccc(C(F)(F)F)cc2)CCC1=O (centres unmarked) | -14.1%
c1ccc2[nH]c(-c3ccncc3)nc2c1 | 9.76%
Cc1ccc(SC[C@H](Cc2ccccc2)N2CC[C@@H](C)CCC2=O)cc1 | -3.01%
COc1ccc2oc(C(=O)OCC(=O)N3CCN(S(=O)(=O)c4ccccc4)CC3)c(C)c2c1 | 18.4%
N#CN=C(c1ccccc1)c1ccccc1 | 14.6%
CCn1c(-c2csc(-c3ccc(Cl)cc3)n2)n[nH]c1=S | 9.28%
CCOC(=O)C1=C(C)N(CCC(=O)O)C(=O)NC1c1ccccc1Cl (centres unmarked) | 15.9%
O=C(COC(=O)c1ccccn1)NC1CCCCC1 | 6.24%
N#Cc1ccc(-c2cccs2)nc1SCc1cccnc1 | 15.3%
Cc1ccc(N2C(N)=C(C#N)C3(C(=O)N(C)c4ccccc43)C3=C2CC(C)(C)CC3=O)cc1Cl (centres unmarked) | 4.85%
CCCCOc1ccc(C(=O)NCC(=O)NNC(=O)C2COc3ccccc3O2)cc1 (centres unmarked) | -0.895%
Cc1ccc(-c2ccc(=O)n(Cc3cc(C)ccc3C)n2)cc1 | 16.1%
O=C1NC2C(NC(=O)N2C2CCCCC2)N1C1CCCCC1 (centres unmarked) | 17%
COc1ccc(OC)c(-c2c3c([nH]c(=S)c2C#N)CCCC3)c1 | 10.1%
COCCOC(=O)C1=C(N)Oc2c(oc(CO)cc2=O)C1c1ccccc1F (centres unmarked) | 0.408%
COc1cccc(/C=N/n2c(COc3ccccc3)n[nH]c2=S)c1OC | 16.1%

Structure (SMILES) | hERG current change (%, negative = inhibition) at 1uM
COc1ccc(N2CCN(C(=O)c3cc4c(=O)n(Cc5ccccc5)ccc4nc3C)CC2)cc1 | -1.72%
Cc1ccc(/C(N)=N/OC(=O)/C=C/c2ccccc2)cc1 | 9.84%
CCO.O=c1[nH]c(NNC(=S)NCc2ccccc2)nc2c1C1(CCCCC1)Cc1ccccc1-2 | 10.2%
Cc1cccc(N2CCN(S(=O)(=O)c3c(C(=O)N4CCCCC4)c(C)n(C)c3C)CC2)c1C | 9.29%
CC(=O)NC(CCS(C)(=O)=O)C(=O)Nc1ccccc1 (centres unmarked) | 19.2%
COC(=O)Cc1c(C)nc2nc(NCc3c(F)cccc3Cl)[nH]n2c1=O | -3.86%
O=S(=O)(NC1CCCC1)c1ccc(S(=O)(=O)N2CCCN(Cc3ccccc3)C2)cc1 | -2.08%
CCc1nc(SCc2ccccc2)n[nH]1 | 12.5%
COc1ccc(O)c(C(=O)c2cnc3onc(C(C)C)c3c2)c1 | 25.3%
COc1ccc(CCNC(=O)c2noc3c2CCCC3)cc1OC | 2.66%
CCOc1ccc(C2C=C(c3ccc(C)cc3)Nc3ncnn32)cc1 (centres unmarked) | 18.2%
CN(C)c1ccc(-c2nn3c(-c4cccnc4)nnc3s2)cc1 | 6.71%
CCCC(C)C(=O)OCC(=O)NCc1ccc(OC)c(OC)c1 (centres unmarked) | 14.7%
CC1(C)CC(=O)C2=C(C1)N(CCN1CCOCC1)C1=C(C(=O)CC(C)(C)C1)C2c1ccc(Cl)c([N+](=O)[O-])c1 | 11.4%
Cc1nn(CC(=O)Nc2nccs2)c(C)c1[N+](=O)[O-] | 2.98%
CCOC(=O)Cc1c(C)c2ccc(N(CC)CC)cc2oc1=O | 14%
COCC(C)NC(=O)c1cc2c(ccc3ccccc32)oc1=O (centres unmarked) | 15.5%
CC1CCCN(C(=O)CSc2nc3ccccc3o2)C1 (centres unmarked) | 4.23%

Source: PMC4336329 (PLoS ONE, 2015)
